Test results reported in PubChem BioAssay AID504339 (National Center for Advancing Translational Sciences (NCATS), 2011).
The whole screen tested about 390,000 compounds, of which about 17,000 (4.4%) were called active. Inconclusive results, whose numbers are uncertain, are shown with a selection of clear calls. Calls come from the whole dose curve; as a rule, active = well fitted inhibition curve with a large enough effect; inconclusive = small, poorly fitted or top-dose-only effect; inactive = no such curve, though single readings can be large or run the other way. A potency beside an inconclusive call is a rough fit, not a confirmed value.

Molecular target: Lysine-specific demethylase 4A (Homo sapiens) (UniProt O75164)
Sequence of UniProt O75164 (O75164 whole entry, looked up, the tested form may be a part): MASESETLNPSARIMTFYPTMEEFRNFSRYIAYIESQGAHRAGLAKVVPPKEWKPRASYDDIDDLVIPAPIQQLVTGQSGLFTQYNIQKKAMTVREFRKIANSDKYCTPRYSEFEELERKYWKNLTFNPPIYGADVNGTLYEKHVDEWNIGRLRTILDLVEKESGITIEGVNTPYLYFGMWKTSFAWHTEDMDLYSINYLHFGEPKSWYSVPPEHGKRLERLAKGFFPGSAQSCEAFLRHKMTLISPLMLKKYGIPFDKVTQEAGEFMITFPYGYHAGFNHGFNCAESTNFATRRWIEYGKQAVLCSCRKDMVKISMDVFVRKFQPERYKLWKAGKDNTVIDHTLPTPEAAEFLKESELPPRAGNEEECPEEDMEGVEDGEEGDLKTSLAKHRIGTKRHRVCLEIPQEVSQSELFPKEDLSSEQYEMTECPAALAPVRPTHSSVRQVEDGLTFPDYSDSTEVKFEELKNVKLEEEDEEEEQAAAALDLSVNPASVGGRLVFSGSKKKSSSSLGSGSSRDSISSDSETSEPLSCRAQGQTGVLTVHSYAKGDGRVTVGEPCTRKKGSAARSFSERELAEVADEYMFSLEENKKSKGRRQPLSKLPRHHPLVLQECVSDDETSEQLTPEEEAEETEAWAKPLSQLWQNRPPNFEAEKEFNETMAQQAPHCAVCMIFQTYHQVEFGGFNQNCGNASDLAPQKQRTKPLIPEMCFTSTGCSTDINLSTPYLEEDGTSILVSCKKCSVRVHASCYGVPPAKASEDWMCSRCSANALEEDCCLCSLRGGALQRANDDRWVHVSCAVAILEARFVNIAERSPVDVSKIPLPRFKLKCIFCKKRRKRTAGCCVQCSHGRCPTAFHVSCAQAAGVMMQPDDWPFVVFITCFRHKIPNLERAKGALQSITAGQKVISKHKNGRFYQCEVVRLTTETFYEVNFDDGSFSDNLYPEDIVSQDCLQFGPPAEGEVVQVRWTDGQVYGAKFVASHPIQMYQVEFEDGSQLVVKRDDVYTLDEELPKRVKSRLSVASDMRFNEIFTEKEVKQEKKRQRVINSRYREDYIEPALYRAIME
Assay: qHTS Assay for Inhibitors of JMJD2A-Tudor Domain; note: nearly all actives have a fitted effect of over 50% in size
Details: AlphaScreen JMJD2A-Tudor / H3K4me3 peptide binding; activity change, negative = inhibition: at 114 µM (top of the series)
% is set by controls: 0 for no effect and ±100 for the full control effect; potency is the fitted concentration of half-maximal effect; tags give direction and shape of the fitted curve.

SMILES | Potency | activity change, negative = inhibition
COc1ccc(N2CCN(C(=O)c3oc4ccccc4c3NC(=O)Cc3cccc(OC)c3)CC2)cc1 | active: 15.8 µM | 
Cc1ccsc1/C=N/n1c(COc2ccccc2)n[nH]c1=S | inconclusive: 44.7 µM [inhibitor, single point] | 
COc1ccccc1CNC(=O)Cc1ccc(Br)cc1 | inactive | 
CCOc1cc(N2CCOCC2)c(OCC)cc1NC(=O)c1c(-c2ccccc2Cl)noc1C | active: 44.7 µM | 
CCOC(=O)c1ccc(NC(=O)COCc2cc(-c3ccc4c(c3)OCO4)on2)cc1 | inactive | 
Cc1ccc(NC(=O)/C(C#N)=C/c2cc(C)n(-c3ccc(N4CCOCC4)c([N+](=O)[O-])c3)c2C)c(C)c1 | inconclusive: 35.5 µM [inhibitor, partial curve, poor fit] | 
Clc1ccc(-c2nc3ccccn3c2CN2CCSCC2)cc1 | inconclusive: 79.4 µM [inhibitor, partial curve] | 
CNC(=O)N(O)C1N(/N=C/c2cc(Br)ccc2O)C(=S)SC1(C)C (configuration not stated) | inconclusive: 20 µM [inhibitor, full curve] | 
CCOC(=O)CNC(=O)N1CCc2cc(S(=O)(=O)N3CCC(C)CC3)ccc21 | inactive | 
CN(Cc1ccccc1)S(=O)(=O)c1ccc(NC(=S)NC(=O)C2CCCCC2)cc1 | inactive | 
O=C(O)c1ccc(N/N=C2/CCSc3ccc(F)cc32)cc1 | inconclusive: 63.1 µM [inhibitor, partial curve, poor fit] | 
Cc1nnc(SCC(=O)N/N=C/c2ccc(-c3ccc(C)c(Cl)c3)o2)s1 | inactive | 
C=CC[n+]1ccc2ccccc2c1C | inconclusive: 56.2 µM [inhibitor, partial curve] | 
COc1ccccc1N1CCN(/N=C/c2cc([N+](=O)[O-])ccc2Cl)CC1 | inconclusive: 50.1 µM [inhibitor, partial curve] | 
O=C(CN1CCN(c2ccc(O)cc2)CC1)Nc1ccc(SC(F)F)cc1 | inconclusive: 89.1 µM [inhibitor, single point] | 
O=C(CN1C(=O)NC2(CCCCCC2)C1=O)NCc1ccccc1Cl | inactive | 
O=[N+]([O-])c1cc(/C=N/N2CCN(C3c4ccccc4-c4ccccc43)CC2)ccc1Cl | inconclusive: 20 µM [inhibitor, full curve] | 
C=CCOCC(O)Cn1c(N2CCCC2)nc2c1c(=O)n(C)c(=O)n2C (configuration not stated) | inactive | 
C=CCN1C(=O)/C(=C2\SC(N3CCOCC3)=NC2=O)c2cc(Br)ccc21 | inconclusive: 28.2 µM [inhibitor, partial curve, poor fit] | 
CCCSc1ncc(Cl)c(C(=O)N(Cc2ccc(N(C)C)cc2)C2CCS(=O)(=O)C2)n1 (configuration not stated) | active: 56.2 µM | 
Cc1cccc2cc(-c3ccccc3)c(-c3ccccc3)c[n+]12 | inconclusive: 89.1 µM [inhibitor, partial curve] | 
COc1cccc(O)c1CN1CCC(Oc2ccc(C(=O)NCc3ccccn3)cc2)CC1 | inconclusive: 22.4 µM [inhibitor, full curve] | 
CCOc1ccc(NCc2ccccc2OCc2cccc(F)c2)cc1 | inconclusive: 79.4 µM [inhibitor, partial curve] | 
COc1ccc(-n2c(COc3ccc(C)cc3)nnc2SCc2ccc(C#N)cc2)cc1 | inactive | 

SMILES | Potency | activity change, negative = inhibition
Oc1c(CN2CCOCC2)ccc2ccccc12 | inconclusive: 50.1 µM [inhibitor, partial curve] | 
COc1cccc(NC(=O)CSc2nc(O)c(C)c(=O)n2-c2ccc(C)cc2)c1 | active: 79.4 µM | 
CC(=O)C1=C(C)NC(SCC(=O)c2ccccc2)=C(C#N)C1CC(C)C (configuration not stated) | active: 56.2 µM | 
COc1ccc(Nc2ccc(N3C(=O)CCCC3=O)cc2[N+](=O)[O-])cc1OC | inconclusive: 79.4 µM [inhibitor, single point] | 
CCCOC(=O)c1c(NC(=O)C2c3ccccc3Oc3ccccc32)sc2c1CCC(C)C2 (configuration not stated) | inactive | 
CN(c1ccccc1)S(=O)(=O)c1cccc(NC(=O)CN2CCCc3ccccc32)c1 | inconclusive: 3.16 µM [inhibitor, partial curve] | 
CNC(=S)Nc1sc2c(c1C(=O)OC)CCC2 | active: 89.1 µM | 
COc1cc(CN2CCN(C(=O)CC(C)C)CC2)c([N+](=O)[O-])cc1OC | active: 22.4 µM | 
CC(=O)c1c(C)nc(-c2ccc(Cl)cc2)nc1N=CN(C)C | inconclusive: 20 µM [inhibitor, partial curve] | 
COc1ccccc1NC(=O)c1c(NCc2ccc(C)o2)sc2c1CCC(C)C2 (configuration not stated) | inconclusive: 39.8 µM [inhibitor, partial curve] | 
Cc1ccc2c(Cl)cc(Cl)c(OCC(=O)N3CCCC3)c2n1 | inactive | 
CCOC(=O)/C(N=Nc1sc(C(=O)OC)c(C)c1C(=O)OCC)=C(\O)CCl | inconclusive: 31.6 µM [inhibitor, single point] | 
O=C(CCc1nnc(-c2ccc3c(c2)OCO3)o1)NC(c1cccnc1)C(F)(F)F (configuration not stated) | inactive | 
O=c1c2ccccc2nc2n1CCC2 | active: 14.1 µM | 
Cc1ccc(S(=O)(=O)N2CCCN(Cc3nc4ccccc4c(=O)[nH]3)CC2)cc1 | inconclusive: 10 µM [inhibitor, partial curve] | 
CSc1nsc(/C=C/Nc2ccc(F)cc2F)c1C#N | inconclusive: 50.1 µM [inhibitor, partial curve] | 
Cc1ccc(-c2csc(=Nc3ccccc3)n2Cc2ccc3c(c2)OCO3)cc1C | inconclusive: 44.7 µM [inhibitor, partial curve] | 
Cc1ccsc1CNc1ncnc2ccc(-c3c(C)noc3C)cc12 | inconclusive: 89.1 µM [inhibitor, single point] | 
CC1=CS(=O)(=O)CC1Sc1nc2ccccc2[nH]1 (configuration not stated) | inconclusive: 100 µM [inhibitor, single point] | 
COc1ccc(/C=C2\SC(=S)N(C(Cc3ccccc3)C(=O)O)C2=O)cc1 (configuration not stated) | inconclusive: 15.8 µM [inhibitor, partial curve] | 
CC(C)C(=O)NC(=S)Nc1ccccn1 | inconclusive: 89.1 µM [inhibitor, single point] | 
COc1ccc(N2CCN(C(=O)c3ccc4c(c3)N(Cc3ccc(F)cc3)C(=O)c3ccccc3S4=O)CC2)cc1 (configuration not stated) | inconclusive: 7.94 µM [inhibitor, full curve] | 
Clc1ccc(-n2nnc(-c3cccnc3Cl)n2)cc1Cl | inconclusive: 100 µM [inhibitor, partial curve] | 
Cc1ccccc1C(=O)NCc1nc2cccnc2n1Cc1ccccc1 | inactive | 

SMILES | Potency | activity change, negative = inhibition
O=c1cc(/C=C/c2ccccc2)oc2c1ccc1ccccc12 | inactive | 
O=c1[nH]c2ccc(NCc3ccccc3OCc3ccc(Cl)cc3)cc2[nH]1 | active: 28.2 µM | 
CCOC(=O)C1=C(C)N=c2s/c(=C\c3cccn3C)c(=O)n2C1c1cccc(OC)c1OC (configuration not stated) | inconclusive: 50.1 µM [inhibitor, partial curve] | 
O=C(c1ccccc1)n1ccc2ccccc21 | inactive | 
COc1cccc(C(=O)NC(=S)Nc2ccc(N3CCCC3)cc2)c1 | active: 39.8 µM | 
COc1cccc(CNC(=O)Cc2ccc(NC(=O)N3CCCCc4ccccc43)cc2)c1OC | inactive | 
Cc1cccc(-c2noc(CCC(=O)N3CCN(c4cc(C)ccc4C)CC3)n2)c1 | inactive | 
Cc1ccc(-n2cccc2/C=C2\C(=N)N3N=C(C(C)C)SC3=NC2=O)cc1 | inconclusive: 44.7 µM [inhibitor, partial curve] | 
CSc1nc(Cl)c(C#N)c(-c2ccc(C)cc2)n1 | inconclusive: 89.1 µM [inhibitor, single point] | 
CCOC(=O)[C@@H]1[C@H]2COc3cc(OC)ccc3[C@@H]2N2C(=O)N(c3ccc(F)cc3)C(=O)[C@]12C | inactive | 
Cc1cccc(NC(=O)CSc2nc(-c3ccccc3)cn2-c2ccccc2)c1C | inconclusive: 28.2 µM [inhibitor, full curve, poor fit] | 
Cc1ccc(C)c(-n2c(CCC(=O)O)ccc2-c2ccc(Cl)cc2)c1 | inconclusive: 39.8 µM [inhibitor, partial curve] | 
Fc1ccc(-n2nnc(-c3nccs3)n2)cc1 | inconclusive: 89.1 µM [inhibitor, single point] | 
COc1ccc(Nc2ncc(C(=O)N3CCN(c4cccc(Cl)c4)CC3)c3ccccc23)cc1 | inactive | 
CCOc1ccc(-c2nc(SCC(=O)Nc3ccc(C)c(C)c3)n3[nH]c(=O)cc3n2)cc1 | active: 50.1 µM | 
CCOc1ccc(NS(=O)(=O)c2cc3c(cc2C)N(C)CCO3)cc1 | inconclusive: 50.1 µM [inhibitor, partial curve] | 
COC(=O)c1c(-c2ccc(C)cc2)csc1N | inconclusive: 50.1 µM [inhibitor, partial curve] | 
Cc1ccccc1OC(C)C(=O)N1CCN(c2ccccn2)CC1 (configuration not stated) | inactive | 
Nc1nnnn1CC(=O)N/N=C/c1ccccn1 | inconclusive: 28.2 µM [inhibitor, partial curve, poor fit] | 
COc1ccc(NC2CCCN(C(=O)c3ccc4[nH]c(C)c(C)c4c3)C2)cc1 (configuration not stated) | inconclusive: 39.8 µM [inhibitor, full curve] | 
CC1(C)C=Cc2c(ccc3c2OC[C@H](c2ccc(O)cc2O)C3)O1 | active: 50.1 µM | 
COC(=O)CSC1=C(C#N)C(=O)NC2(CCCCC2)S1 |  | inconclusive: -100% [inhibitor]
Cc1ccc(C(=O)CC2(O)C(=O)N(CCc3ccccc3)c3ccc(Cl)cc32)cc1 (configuration not stated) | inactive | 
COC(=O)c1ccc(CSc2ncnc3c2sc2nc(N4CCOCC4)c4c(c23)CCCC4)o1 | inconclusive: 100 µM [inhibitor, single point] | 
